Test results taken from the supplement of paper PMC8728848.
The other results are listed elsewhere or left out.

What was measured:
Assay in all cases: glycan array binding signal (z-score within array); higher = stronger binding
Conditions in all cases: glycan notation: IUPAC condensed, linker removed
[1] = target: GlcNAc(b1-3)Gal(b1-4)GlcNAc(b1-3)Gal(b1-4)GlcNAc(b1-3)Gal(b1-4)GlcNAc(b1-3)Gal(b1-4)GlcNAc(b1-2)[GlcNAc(b1-3)Gal(b1-4)GlcNAc(b1-3)Gal(b1-4)GlcNAc(b1-3)Gal(b1-4)GlcNAc(b1-3)Gal(b1-4)GlcNAc(b1-6)]Man(a1-6)[GlcNAc(b1-3)Gal(b1-4)GlcNAc(b1-3)Gal(b1-4)GlcNAc(b1-3)Gal(b1-4)GlcNAc(b1-3)Gal(b1-4)GlcNAc(b1-2)Man(a1-3)]Man(b1-4)GlcNAc(b1-4)[Fuc(a1-6)]GlcNAc
In short: (§1)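 The binding signal is a Z-score computed within each array. Data were drawn from 3228 arrays in the Consortium for Functional Glycomics database, restricted to those with a known protein sequence. Scores were averaged over arrays of the same protein sequence at different concentrations or buffers, and over linkers, and negative values can be taken as non-binding.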

[2] = target: GlcNAc(b1-3)Gal(b1-4)GlcNAc(b1-3)Gal(b1-4)GlcNAc(b1-3)GalNAc
In short: as §1

[3] = target: GlcNAc(b1-3)Gal(b1-4)GlcNAc(b1-3)GalNAc
In short: as §1

[4] = target: GlcNAc(b1-3)Gal(b1-4)GlcNAc(b1-3)[GlcNAc(b1-3)Gal(b1-4)GlcNAc(b1-3)]GalNAc
In short: as §1

[5] = target: GlcNAc(b1-3)Gal(b1-4)GlcNAc(b1-6)[Gal(b1-3)]GalNAc
In short: as §1

[6] = target: GlcNAc(b1-3)Gal(b1-4)GlcNAc(b1-6)[GlcNAc(b1-3)Gal(b1-3)]GalNAc
In short: as §1

[7] = target: GlcNAc(b1-3)Gal(b1-4)GlcNAc(b1-6)[GlcNAc(b1-3)]Gal(b1-4)GlcNAc
In short: as §1

GlcNAc(b1-3)GalNAc = target: GlcNAc(b1-3)GalNAc
In short: as §1

GlcNAc(b1-3)Man = target: GlcNAc(b1-3)Man
In short: as §1

[8] = target: GlcNAc(b1-3)[GlcNAc(b1-4)][GlcNAc(b1-6)]GlcNAc
In short: as §1

[9] = target: GlcNAc(b1-3)[GlcNAc(b1-6)]Gal(b1-4)GlcNAc
In short: as §1

[10] = target: GlcNAc(b1-3)[GlcNAc(b1-6)]GalNAc
In short: as §1

[11] = target: GlcNAc(b1-4)Gal(b1-4)GlcNAc
In short: as §1

GlcNAc(b1-4)GlcNAc = target: GlcNAc(b1-4)GlcNAc
In short: as §1

[12] = target: GlcNAc(b1-4)GlcNAc(b1-4)GlcNAc
In short: as §1

[13] = target: GlcNAc(b1-4)GlcNAc(b1-4)GlcNAc(b1-4)GlcNAc(b1-4)GlcNAc
In short: as §1

[14] = target: GlcNAc(b1-4)GlcNAc(b1-4)GlcNAc(b1-4)GlcNAc(b1-4)GlcNAc(b1-4)GlcNAc
In short: as §1

[15] = target: GlcNAc(b1-4)[GlcNAc(b1-6)]GalNAc
In short: as §1

[16] = target: GlcNAc(b1-6)Gal(b1-4)GlcNAc
In short: as §1

GlcNAc(b1-6)GalNAc = target: GlcNAc(b1-6)GalNAc
In short: as §1

[17] = target: GlcNAc6S(b1-3)Gal(b1-4)GlcNAc
In short: as §1

Kdn(a2-3)Gal(b1-3)GalNAc = target: Kdn(a2-3)Gal(b1-3)GalNAc
In short: as §1

Kdn(a2-3)Gal(b1-3)GlcNAc = target: Kdn(a2-3)Gal(b1-3)GlcNAc
In short: as §1

Kdn(a2-3)Gal(b1-4)Glc = target: Kdn(a2-3)Gal(b1-4)Glc
In short: as §1

Kdn(a2-3)Gal(b1-4)GlcNAc = target: Kdn(a2-3)Gal(b1-4)GlcNAc
In short: as §1

[18] = target: Kdn(a2-3)Gal(b1-4)[Fuc(a1-3)]GlcNAc
In short: as §1

Kdn(a2-6)Gal(b1-4)GlcNAc = target: Kdn(a2-6)Gal(b1-4)GlcNAc
In short: as §1

[19] = target: Man(a1-2)Man(a1-2)Man(a1-3)Man
In short: as §1

[20] = target: Man(a1-2)Man(a1-2)Man(a1-6)[Man(a1-3)]Man
In short: as §1

Man(a1-2)Man(a1-3)Man = target: Man(a1-2)Man(a1-3)Man
In short: as §1

B1: a L Fucosidase (Streptosporangium roseum), D2B1P1_STRRD (protein)
chain: MRRKLLLVPAVGLLVIGSIFATQPVASADTPPVYEPTVESLNSHPVPQWFNDDKFGIFIHWGAYSVPAWGPRGSYAEWYGNYMNAGGSATNAHHKATYGQDFNYDAFLQQWKAEKFDPADWVKLFKDAGAKYFVLTSKHHEGMALWDSKSSGRDSVDLGPGRDLAKELFDAARKDEAKLKAGFYYSLYEWYNPAYTGRPATNPYTGAEIPYTGAPGGGDYVKDYMLPQMRELIDGYDPDIIWCDGQWEKPASYWNTAGVIADYYNKALNSGKEVAVANRCKIQSGNLDSPELDFQTPEYTVKPDIDPVKWESSRGIAHSYGYNQNEPEEDHLTSDQLVDSLVDIVSKNGNLLLDIGPKADGTIPEIQRQRLLDIGAWLKANGEAIYGTTYWNRAEEKGGPDDVRYTAKDATLYATALKWPGEQLTLGADLPVDHSTRITMLGSGARLSWSRDEQGRVVVNTPQEAGKHAYVFKIETPGVRSLLRTSSSLAKEIAPGRTISGELTVTNPGKRHTPATKLSLTVPQGWTATLGAPRVRPLGPGESVKVPISVSAPEGVAPAPYTLGLYQRTGRMGTTTALPLTVNRPNLSLGKPATQKSTGYDAPASRAVDGNTGGDWSAGSTTHTAEPEKQAWWQVDLGASARLDSVDVWNRLDCCADRLKDFWVMASDQPFTTDDLDQARTAPGVTAVHVGEQAGSPSKVKLPEGTRGRYVRIQLASPSNPLSLAEVQVRGSMARPNLSLGKPATQKSTGYDAPASRAVDGNTGGDWSAGSTTHTAEPEKQAWWQVDLGASARLDSVDVWNRLDCCADRLKDFWVMASDQPFTTDDLDQARTAPGVTAVHVGEQAGSPSKVKLPEGTRGRYVRIQLASPSNPLSLAEVQVRLEHHHHHHS
glycan array binding signal (z-score) [1]: -0.477
glycan array binding signal (z-score) [2]: -0.561
glycan array binding signal (z-score) [3]: -0.447
glycan array binding signal (z-score) [4]: -0.509
glycan array binding signal (z-score) [5]: -0.564
glycan array binding signal (z-score) [6]: 0.314
glycan array binding signal (z-score) [7]: -0.195
glycan array binding signal (z-score) (GlcNAc(b1-3)GalNAc): -0.567
glycan array binding signal (z-score) (GlcNAc(b1-3)Man): -0.086
glycan array binding signal (z-score) [8]: -0.599
glycan array binding signal (z-score) [9]: -0.608
glycan array binding signal (z-score) [10]: -0.291
glycan array binding signal (z-score) [11]: -0.774
glycan array binding signal (z-score) (GlcNAc(b1-4)GlcNAc): -0.445
glycan array binding signal (z-score) [12]: -0.537
glycan array binding signal (z-score) [13]: -0.566
glycan array binding signal (z-score) [14]: -0.148
glycan array binding signal (z-score) [15]: -0.637
glycan array binding signal (z-score) [16]: -0.461
glycan array binding signal (z-score) (GlcNAc(b1-6)GalNAc): -0.474
glycan array binding signal (z-score) [17]: -0.43
glycan array binding signal (z-score) (Kdn(a2-3)Gal(b1-3)GalNAc): 0.474
glycan array binding signal (z-score) (Kdn(a2-3)Gal(b1-3)GlcNAc): -0.54
glycan array binding signal (z-score) (Kdn(a2-3)Gal(b1-4)Glc): -0.16
glycan array binding signal (z-score) (Kdn(a2-3)Gal(b1-4)GlcNAc): -0.555
glycan array binding signal (z-score) [18]: -0.017
glycan array binding signal (z-score) (Kdn(a2-6)Gal(b1-4)GlcNAc): -0.127
glycan array binding signal (z-score) [19]: -0.582
glycan array binding signal (z-score) [20]: -0.247
glycan array binding signal (z-score) (Man(a1-2)Man(a1-3)Man): -0.556
